This note sets out measurements from article PMC10229743.

By UniProt entry, the sequences of proteins in these tests, tags left out. Where a name states a change or a piece, a line headed by the entry shows the natural chain unless it says otherwise. Chains listed by the source or under a name are the forms on record and can include a tag or linker. Residues count along the entry.
UniProt P19474: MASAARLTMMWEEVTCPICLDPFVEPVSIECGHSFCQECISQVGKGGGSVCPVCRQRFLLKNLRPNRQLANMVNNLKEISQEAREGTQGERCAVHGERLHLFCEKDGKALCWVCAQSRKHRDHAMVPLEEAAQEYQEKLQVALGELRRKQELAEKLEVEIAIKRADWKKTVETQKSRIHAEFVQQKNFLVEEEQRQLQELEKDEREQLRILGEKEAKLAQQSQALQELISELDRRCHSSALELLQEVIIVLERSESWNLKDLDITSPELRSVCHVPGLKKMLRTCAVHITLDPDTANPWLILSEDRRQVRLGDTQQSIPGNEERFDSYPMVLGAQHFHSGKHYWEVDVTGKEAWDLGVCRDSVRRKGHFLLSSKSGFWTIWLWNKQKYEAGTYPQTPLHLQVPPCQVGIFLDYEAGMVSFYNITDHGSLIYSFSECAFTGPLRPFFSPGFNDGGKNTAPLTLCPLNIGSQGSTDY
His-TRIM21 deletion mutant lacking residues 286-465 located in the SPRY domain (His-SPRY^Δ) (P19474, form named): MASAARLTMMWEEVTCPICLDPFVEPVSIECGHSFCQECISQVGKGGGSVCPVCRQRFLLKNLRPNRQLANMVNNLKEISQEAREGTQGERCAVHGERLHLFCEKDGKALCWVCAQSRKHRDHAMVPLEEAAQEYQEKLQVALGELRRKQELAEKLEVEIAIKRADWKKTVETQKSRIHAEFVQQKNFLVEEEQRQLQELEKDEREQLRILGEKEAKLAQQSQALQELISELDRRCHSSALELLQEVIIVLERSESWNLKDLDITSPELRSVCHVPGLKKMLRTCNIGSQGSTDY
His-TRIM21 deletion mutant lacking residues 12-55 located in the RING domain (His-RING^Δ) (P19474, form named): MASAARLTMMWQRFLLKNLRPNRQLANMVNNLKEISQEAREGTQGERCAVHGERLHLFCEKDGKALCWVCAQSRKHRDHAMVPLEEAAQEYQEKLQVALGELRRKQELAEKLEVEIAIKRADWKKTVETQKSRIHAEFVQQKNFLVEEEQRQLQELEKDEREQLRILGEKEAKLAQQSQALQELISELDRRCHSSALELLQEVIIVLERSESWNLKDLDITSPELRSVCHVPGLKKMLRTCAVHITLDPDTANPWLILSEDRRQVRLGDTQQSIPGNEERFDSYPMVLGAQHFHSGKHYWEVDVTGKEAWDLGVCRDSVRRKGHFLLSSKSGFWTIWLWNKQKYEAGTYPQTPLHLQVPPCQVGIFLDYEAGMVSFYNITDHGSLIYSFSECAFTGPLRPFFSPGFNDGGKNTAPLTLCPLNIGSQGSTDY

These are yes or no findings as the source states them, for the method shown. Binding seen in cells or lysates may run through a third protein. Some results given as binding are weak or reduced against the parent protein; the word gives no strength.

Assay [1] deals with His-TRIM21 deletion mutant lacking residues 286-465 located in the SPRY domain (His-SPRY^Δ) (UniProt P19474). Description: co-IP; mouse primary hepatocytes transfected with TRIM21 WT, His-RING^Δ or His-SPRY^Δ plasmids for 48 h, MG132 (10 μmol/L) for 4 h before lysis; His-tag immunoprecipitated; blot for FASN, PEPCK1 and His-tag.
The target of assay [2] is His-TRIM21 deletion mutant lacking residues 12-55 located in the RING domain (His-RING^Δ) (UniProt P19474). The description is as above.
Assay [3] concerns the target TRIM21 WT (wild type), plasmid-expressed (UniProt P19474). The assay is described as above.
The target in assay [4] is T1, tripartite motif-containing protein 21 (TRIM21), endogenous in mouse primary hepatocytes (mouse (endogenous in primary hepatocytes)) (UniProt Q62191).
T1 sequence: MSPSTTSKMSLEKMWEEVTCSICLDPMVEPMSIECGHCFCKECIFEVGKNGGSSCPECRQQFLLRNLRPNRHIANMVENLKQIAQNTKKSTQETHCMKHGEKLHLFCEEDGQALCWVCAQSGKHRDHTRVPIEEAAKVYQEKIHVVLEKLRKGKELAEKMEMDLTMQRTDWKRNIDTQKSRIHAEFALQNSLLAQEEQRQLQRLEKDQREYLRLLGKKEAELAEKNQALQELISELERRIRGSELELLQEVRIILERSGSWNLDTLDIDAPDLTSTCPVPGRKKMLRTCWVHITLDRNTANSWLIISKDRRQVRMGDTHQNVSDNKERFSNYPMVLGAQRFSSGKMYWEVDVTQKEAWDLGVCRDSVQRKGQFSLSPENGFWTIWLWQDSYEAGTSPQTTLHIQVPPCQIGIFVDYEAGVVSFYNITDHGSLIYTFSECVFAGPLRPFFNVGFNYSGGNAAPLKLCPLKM
Description: co-IP; endogenous proteins in mouse primary hepatocyte lysate; IP with anti-TRIM21, anti-PEPCK1 or anti-FASN antibody or control IgG, protein A/G agarose, overnight; immunoblot.

B1: phosphoenolpyruvate carboxykinase-1 (PEPCK1), endogenous in mouse primary hepatocytes (protein, UniProt Q9Z2V4 1-622)
chain: MPPQLHNGLDFSAKVIQGSLDSLPQAVRKFVEGNAQLCQPEYIHICDGSEEEYGQLLAHMQEEGVIRKLKKYDNCWLALTDPRDVARIESKTVIITQEQRDTVPIPKTGLSQLGRWMSEEDFEKAFNARFPGCMKGRTMYVIPFSMGPLGSPLAKIGIELTDSPYVVASMRIMTRMGISVLEALGDGEFIKCLHSVGCPLPLKKPLVNNWACNPELTLIAHLPDRREIISFGSGYGGNSLLGKKCFALRIASRLAKEEGWLAEHMLILGITNPEGKKKYLAAAFPSACGKTNLAMMNPSLPGWKVECVGDDIAWMKFDAQGNLRAINPENGFFGVAPGTSVKTNPNAIKTIQKNTIFTNVAETSDGGVYWEGIDEPLAPGVTITSWKNKEWRPQDAEPCAHPNSRFCTPASQCPIIDPAWESPEGVPIEGIIFGGRRPEGVPLVYEALSWQHGVFVGAAMRSEATAAAEHKGKIIMHDPFAMRPFFGYNFGKYLAHWLSMAHRPAAKLPKIFHVNWFRKDKDGKFLWPGFGENSRVLEWMFGRIEGEDSAKLTPIGYIPKENALNLKGLGGVNVEELFGISKEFWEKEVEEIDRYLEDQVNTDLPYEIERELRALKQRISQM
Regarding B1, the binding entry in assay [1] is “binds”; in assay [2], “no binding”; in assay [3], “binds”; in assay [4], “binds”.
